# Hit rate of the full screen: of about 110,000 compounds, about 230 (0.21%) showed an effect of 50% or more. The list shows a part of the results.
# Biological target: DPAP1 (Plasmodium falciparum, UniProt Q8IIJ9)
# Assay: primary screen, percent inhibition; read by cleavage of a fluorogenic dipeptide substrate; higher = more effect of the substance
# Design: species or system P. falciparum D10 trophozoite lysates; single well
# 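Further: 30 min substrate incubation versus DMSO and 10 µM JCP410 controls.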
# DPAP1, sequence (Q8IIJ9 whole entry, looked up): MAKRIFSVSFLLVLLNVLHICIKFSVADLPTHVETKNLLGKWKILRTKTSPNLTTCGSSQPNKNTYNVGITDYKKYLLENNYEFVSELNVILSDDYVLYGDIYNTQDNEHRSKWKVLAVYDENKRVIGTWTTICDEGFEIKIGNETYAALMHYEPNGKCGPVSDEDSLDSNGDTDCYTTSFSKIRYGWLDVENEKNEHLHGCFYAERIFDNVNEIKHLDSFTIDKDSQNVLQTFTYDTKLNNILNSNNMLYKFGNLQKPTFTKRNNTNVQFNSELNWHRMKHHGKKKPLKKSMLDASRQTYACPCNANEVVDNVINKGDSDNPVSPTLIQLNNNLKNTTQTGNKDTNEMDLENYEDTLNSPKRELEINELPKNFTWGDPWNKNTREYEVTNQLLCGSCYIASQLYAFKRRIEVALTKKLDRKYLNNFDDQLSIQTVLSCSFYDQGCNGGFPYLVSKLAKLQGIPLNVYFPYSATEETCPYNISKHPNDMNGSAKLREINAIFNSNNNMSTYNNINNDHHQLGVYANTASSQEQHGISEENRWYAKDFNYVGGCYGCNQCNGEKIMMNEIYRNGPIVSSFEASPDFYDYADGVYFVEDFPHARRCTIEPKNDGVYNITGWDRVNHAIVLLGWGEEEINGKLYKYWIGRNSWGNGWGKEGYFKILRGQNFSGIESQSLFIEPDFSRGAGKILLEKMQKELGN
row,Structure (SMILES),% Inhibition @ 10 uM
1,O=C(NCc1ccc2c(c1)OCO2)c1ccc(F)cc1,0.35%
2,Cc1nc2nc(N3C(=O)c4ccc(C(=O)O)cc4C3=O)nn2c(C)c1Cl,5.2%
3,Fc1ccc(N2N=C(c3cccs3)CC2c2ccccc2)cc1 (centres unmarked),4.98%
4,CCn1cc(CCC(=O)NCCC2=CCCCC2)c2ccccc21,-1.43%
5,CC1=NC(C)=C(C#N)C(C(F)(F)F)(C(F)(F)F)N1,1.91%
6,COC(=O)C1=C(C)N(C(C)C)C(=O)/C1=C\c1cc(C)n(-c2ccccc2)c1C,-1.26%
7,Cc1nc(-n2cccc2)sc1C(=O)NCC(C)c1ccccc1 (centres unmarked),-0.637%
8,N#CCNC(=O)[C@H](CC1CCCCC1)NC(=O)c1ccc(O)c([N+](=O)[O-])c1,2.86%
9,O=c1c(CN2CCN(c3cccc(Cl)c3)CC2)coc2ccccc12,0.847%
10,CC1CCC(NCCN2CCOCC2)C1 (centres unmarked),3.15%
11,Cc1ccc(N2C(=O)CC(N3CCN(Cc4ccccc4)CC3)C2=O)c(Cl)c1 (centres unmarked),-4.15%
12,CCOc1cccc(C(=O)Nc2nnc(-c3ccco3)s2)c1,-5.7%
13,CC1=C(C(=O)Nc2ccccn2)C(c2sccc2C)C2=C(O)CCCC2=N1 (centres unmarked),-4.67%
14,Cc1cc(-c2ccc(C)c(S(=O)(=O)N3CCN(c4ccccn4)CC3)c2)on1,0.879%
15,N#C/C(=C\C=C\c1ccccc1)c1nc(-c2ccccc2)cs1,-7.56%
16,Cc1ccccc1C(=O)NC(C)c1ccc2c(c1)OCO2 (centres unmarked),3.04%
17,COc1ccc(CCNC(=O)CCn2cccn2)cc1OC,-1.74%
18,Cc1nnc2ccc(N3CCC4(CC3)OCCO4)nn12,7.15%
19,CC1=C(C(=O)OCc2ccccc2)C(c2cccc(Cl)c2Cl)C2=C(O)CC(C)(C)CC2=N1 (centres unmarked),0.162%
20,N#Cc1c(NC(=O)c2ccccc2C(=O)O)sc2c1CCC2,2.67%
21,CC1(C)c2ccccc2CN2C(=O)OC3(C)CCC1C23C (centres unmarked),2.01%
22,Cc1ccccc1Cn1c(SCc2ccc(C(=O)O)cc2)nc2ccncc21,-3.34%

row,Structure (SMILES),% Inhibition @ 10 uM
1,COc1cc(C2NC(C(=O)O)CS2)ccc1OCc1ccccc1Cl (centres unmarked),-2.67%
2,COc1cc(OC)cc(-c2nc3n(n2)C(c2ccc(Cl)cc2)C(C(N)=O)=C(C)N3)c1 (centres unmarked),5.17%
3,COC(=O)C1=CN(C)C=C(C(=O)OC)C1c1cccc(Br)c1,3.45%
4,CCOc1ccc(N(Cc2cc3cccc(C)c3nc2O)C(C)=O)cc1,0.727%
5,Cc1ccc2c(c1)C(C)(C)C1(/C=C/c3cccnc3)NC(=O)CN21 (centres unmarked),-0.641%
6,Cc1cccc(CC(=O)Nc2c(C(=O)N3CCN(c4ncccn4)CC3)oc3ccccc23)c1,-7.36%
7,CCOc1ccccc1CNC(=O)CCn1nc(C)c2c(C)n(-c3ccccc3)nc2c1=O,0.227%
8,CCOCCCNC(=O)CCn1ccc2cc(S(=O)(=O)N3CCCC3)ccc21,2.65%
9,Cc1nc2ccc(S(=O)(=O)NC(C(=O)NCCc3ccccc3)C(C)C)cc2s1 (centres unmarked),-0.0115%
10,Cc1cccc(NC(=O)c2cccc(C)c2)c1,6.18%
11,CC(C(O)c1ccc2ccccc2c1)N1CCCCC1 (centres unmarked),-3.8%
12,CC1(C)CC2=Nc3ccccc3NC(c3ccc([N+](=O)[O-])cc3)C2=C(O)C1 (centres unmarked),0.467%
13,CCc1ccc(/C=C/C(=O)c2c(C)cc(C)nc2O)cc1,1%
14,Cc1sc(NC(=O)C2C3C=CC(CC3)C2C(=O)O)c(C(N)=O)c1C (centres unmarked),-8.68%
15,C/N=C1/c2c(C)c3cc(OC)ccc3n2CCN1C,4.18%
16,O=C(O)c1ccccc1C(=O)NCc1cccnc1,-0.615%
17,CCC(=O)Nc1ccc(S(=O)(=O)N2CCCCCC2)cc1,-2.54%
18,COc1ccc(N2C(=O)CC(Sc3ccc(Cl)cc3)C2=O)c(OC)c1 (centres unmarked),-1.26%
19,CC(=O)NC12CC3CC(C1)CC(n1ncc(NCc4ccccc4)c(Cl)c1=O)(C3)C2,6.37%
20,COc1ccc(-c2c3c(=O)n(C)c(=O)n(C)c3cn2C2CCCCCC2)cc1,-1.35%
21,COc1ccc(C2C(C(C)=O)=C(O)C(=O)N2CCc2c[nH]c3ccccc23)cc1OC (centres unmarked),-3.95%
22,Clc1cccc2c(N3CCN(Cc4ccc5c(c4)OCO5)CC3)cnnc12,-3.45%

row,Structure (SMILES),% Inhibition @ 10 uM
1,Cc1[nH]nc2c1C(c1ccc(C(F)(F)F)cc1)C(C#N)=C(N)O2 (centres unmarked),3.05%
2,OC1CCN(Cc2ccc(F)c(F)c2)C1 (centres unmarked),3.48%
3,COc1ccc(OC)c(-c2cc(C(=O)Nc3ccncc3)c3ccccc3n2)c1,4.98%
4,CCC(Sc1nc2ccncc2[nH]1)C(=O)NCc1ccc(C)cc1 (centres unmarked),8.62%
5,CSc1ccc(CN2CCCC(C(N)=O)C2)cc1 (centres unmarked),-7.02%
6,CC1=C(C(=O)Nc2ccccc2F)C(c2ccc(Br)cc2)C2=C(O)CCCC2=N1 (centres unmarked),1.82%
7,Cc1cc(OCC(=O)Nc2ccc3oc(-c4cccnc4)nc3c2)ccc1Cl,-1.55%
8,Cc1cccc(OCCCC(=O)Nc2ccccc2F)c1,-3.45%
9,NC(=O)C1CCCN(Cc2ccc3ccccc3c2)C1 (centres unmarked),-1.64%
10,O=C(NCCCCc1ccccc1)Nc1cccc(Cl)c1,-0.0404%
11,COC(=O)c1oc2ccc(Cl)cc2c1N,-7.23%
12,Cc1cc(CNC(=O)c2cccnc2Cl)c2ccccc2n1,-4.04%
13,Cn1c(=O)[nH]c(=O)c2c1nc(SCCc1ccccc1)n2Cc1ccc(Cl)cc1,-0.053%
14,Oc1nc(CN2CCN(c3cccc(Cl)c3)CC2)nc2ccccc12,-2.34%
15,COc1cccc(CCNC2CCc3ccccc3C2)c1 (centres unmarked),-5.31%
16,COc1ccc(N(CC(=O)NCc2ccc(Cl)cc2)S(C)(=O)=O)cc1Cl,1.49%
17,COc1ccc2nc(C)c3c(c2c1)SC(C)C3 (centres unmarked),4.88%
18,COC(=O)CN1CCN(C(c2ccccc2)c2ccccc2)CC1,-2.63%
19,CC(CCc1ccco1)NC(=O)Cn1ncc2ccccc21 (centres unmarked),4.84%
20,Cc1ccc2cc(C)c(N3CCC(C)CC3)nc2c1,5.2%
21,COc1cc2c(cc1C)C(=O)C(C1(O)C(=O)Nc3ccccc31)CC2 (centres unmarked),-2.99%

# — PMC6919601, “Identification of Plasmodium dipeptidyl aminopeptidase allosteric inhibitors by high throughput screening” (PLoS ONE, 2019)
